Laboratory results taken from the supplement of paper PMC4604168 (melanoma cell lines).
This is one part of the list. Many values rest on one well or one pass, so single values are uncertain.

Assays:
Assay in all cases: cell count relative to DMSO control; melanoma cells; higher = more viable cells
Conditions in all cases: library dose: low library concentration; 72 h
MZ2-MEL = tested on: MZ2-MEL
MeWo = tested on: MeWo
RPMI7951 = tested on: RPMI7951
RVH-421 = tested on: RVH-421
SkMel28 = tested on: SkMel28
SkMel2 = tested on: SkMel2
SkMel30 = tested on: SkMel30
UACC62 = tested on: UACC62
SkMel5 = tested on: SkMel5
UACC257 = tested on: UACC257
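Note: cell number obtained by counting DAPI-stained nuclei in high-throughput microscope images with image analysis software, screen run in 1,536-well plates.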

SMILES | cell count (MZ2-MEL) | cell count (MeWo) | cell count (RPMI7951) | cell count (RVH-421) | cell count (SkMel28) | cell count (SkMel2) | cell count (SkMel30) | cell count (UACC62) | cell count (SkMel5) | cell count (UACC257)
O=C(Nc1cc(C(F)(F)F)cc(C(F)(F)F)c1)c1cc(Cl)ccc1O + C#Cc1cccc(Nc2ncnc3cc(OCCOC)c(OCCOC)cc23)c1 [erlotinib] (first compound 0.016 µM, partner dose 0.8 µM) | 93.3% | 82% | 108% | 110% | 88.9% | 96% | 105% | 93.7% |  | 
O=C(Nc1cc(C(F)(F)F)cc(C(F)(F)F)c1)c1cc(Cl)ccc1O + C[C@]1(O)C[C@@H](c2nc(-c3ccc4ccc(-c5ccccc5)nc4c3)c3c(N)nccn32)C1 [OSI906] (first compound 0.016 µM, partner dose 0.4 µM) | 88.4% | 97.6% | 95% | 101% | 77.9% | 85.5% | 80.6% | 78.9% |  | 
O=C(Nc1cc(C(F)(F)F)cc(C(F)(F)F)c1)c1cc(Cl)ccc1O + C=C(c1ccc(C(=O)O)cc1)c1cc2c(cc1C)C(C)(C)CCC2(C)C [Bexarotene] (first compound 0.016 µM, partner dose 2 µM) | 93% | 87.9% | 101% | 112% | 86.9% | 104% | 108% | 95.9% |  | 
O=C(O)[C@@H]1[O][Sb](=[O])([O][Sb]2(=[O])[O][C@H]([C@H](O)CO)[C@H](O)[C@H](C(=O)O)[O]2)[O][C@H]([C@H](O)CO)[C@@H]1O (some centres undefined) [stibogluconate] + C#Cc1cccc(Nc2ncnc3cc(OCCOC)c(OCCOC)cc23)c1 [erlotinib] (first compound 2 µM, partner dose 0.8 µM) | 103% | 88.3% | 101% | 104% | 118% | 94.5% | 93.7% | 91.3% |  | 
O=C(O)c1ccc2c(c1)nc(Nc1cccc(Cl)c1)c1ccncc12 + C=C(c1ccc(C(=O)O)cc1)c1cc2c(cc1C)C(C)(C)CCC2(C)C [Bexarotene] (first compound 0.4 µM, partner dose 2 µM) | 90.6% | 88.2% | 82.2% | 81.8% | 67.4% | 94.3% | 99.5% | 94.6% |  | 
O=C(O)c1ccc2c(c1)nc(Nc1cccc(Cl)c1)c1ccncc12 + Nc1ncn([C@H]2C[C@H](O)[C@@H](CO)O2)c(=O)n1 [decitabine] (first compound 0.4 µM, partner dose 0.1 µM) | 77.7% | 83.7% | 79.4% | 77.3% | 93.9% | 95% | 84.9% | 71% |  | 
O=C(Nc1cc(C(F)(F)F)cc(C(F)(F)F)c1)c1cc(Cl)ccc1O + Nc1nc(F)nc2c1ncn2[C@@H]1O[C@H](CO)[C@@H](O)[C@@H]1O [fludarabine] (first compound 0.016 µM, partner dose 0.2 µM) | 113% | 50.8% | 115% | 139% | 96.4% | 0.334% | 21.5% | 82.8% |  | 
O=C(Nc1cc(C(F)(F)F)cc(C(F)(F)F)c1)c1cc(Cl)ccc1O + CNC(=O)c1cc(Oc2ccc(NC(=O)Nc3ccc(Cl)c(C(F)(F)F)c3)cc2)ccn1 [sorafenib] (first compound 0.016 µM, partner dose 0.4 µM) | 83.6% | 87.5% | 88.5% | 102% | 81.3% | 107% | 89.9% | 91.3% |  | 
O=C(Nc1cc(C(F)(F)F)cc(C(F)(F)F)c1)c1cc(Cl)ccc1O + C[C@@H](N)c1ccc(C(=O)Nc2ccnc3[nH]ccc23)cc1 [RKI983] (first compound 0.016 µM, partner dose 0.4 µM) | 88.6% | 67.7% | 85.5% | 83.8% | 60.8% | 108% | 129% | 103% |  | 
O=C(Nc1cc(C(F)(F)F)cc(C(F)(F)F)c1)c1cc(Cl)ccc1O + NC(=O)c1ccc(N(C(N)=O)c2c(F)cccc2F)nc1-c1ccc(F)cc1F [VX702] (first compound 0.016 µM, partner dose 0.4 µM) | 117% | 102% | 111% | 81.7% | 70.9% | 102% | 124% | 106% |  | 
O=C(Nc1cc(C(F)(F)F)cc(C(F)(F)F)c1)c1cc(Cl)ccc1O + Cn1nnc2c(C(N)=O)ncn2c1=O [temozolomide] (first compound 0.016 µM, partner dose 2 µM) | 98.1% | 94.7% | 111% | 103% | 88.6% | 104% | 90% | 76.4% |  | 
O=C(Nc1cc(C(F)(F)F)cc(C(F)(F)F)c1)c1cc(Cl)ccc1O + CC(=O)c1c(C)c2cnc(Nc3ccc(N4CCNCC4)cn3)nc2n(C2CCCC2)c1=O [palbociclib] (first compound 0.016 µM, partner dose 0.04 µM) | 85.1% | 66.8% | 70.6% | 97.1% | 60.8% | 80.7% | 62.7% | 73.6% |  | 
O=C(O)[C@@H]1[O][Sb](=[O])([O][Sb]2(=[O])[O][C@H]([C@H](O)CO)[C@H](O)[C@H](C(=O)O)[O]2)[O][C@H]([C@H](O)CO)[C@@H]1O (some centres undefined) [stibogluconate] + Cn1c(Nc2ccc(C(F)(F)F)cc2)nc2cc(Oc3ccnc(-c4ncc(C(F)(F)F)[nH]4)c3)ccc21 [CHIR265] (first compound 2 µM, partner dose 0.08 µM) | 94.2% | 68.6% | 71.4% | 78.7% | 74% | 94.6% | 53% | 52.3% |  | 
O=C(O)[C@@H]1[O][Sb](=[O])([O][Sb]2(=[O])[O][C@H]([C@H](O)CO)[C@H](O)[C@H](C(=O)O)[O]2)[O][C@H]([C@H](O)CO)[C@@H]1O (some centres undefined) [stibogluconate] + C=C(c1ccc(C(=O)O)cc1)c1cc2c(cc1C)C(C)(C)CCC2(C)C [Bexarotene] (first compound 2 µM, partner dose 2 µM) | 91.1% | 96.1% | 78.8% | 106% | 77.1% | 92.9% | 75.4% | 81.5% |  | 
O=C(Nc1cc(C(F)(F)F)cc(C(F)(F)F)c1)c1cc(Cl)ccc1O + CC(C)C[C@H](NC(=O)[C@H](Cc1ccccc1)NC(=O)c1cnccn1)B(O)O [Bortezomib] (first compound 0.016 µM, partner dose 0.001 µM) | 97.3% | 82.2% | 111% | 104% | 85.6% | 99.3% | 104% | 85.2% |  | 
O=C(Nc1cc(C(F)(F)F)cc(C(F)(F)F)c1)c1cc(Cl)ccc1O + CC1(C)CCC(c2ccc(Cl)cc2)=C(CN2CCN(c3ccc(C(=O)NS(=O)(=O)c4ccc(N[C@H](CCN5CCOCC5)CSc5ccccc5)c(S(=O)(=O)C(F)(F)F)c4)cc3)CC2)C1 [ABT263] (first compound 0.016 µM, partner dose 0.4 µM) | 97.4% | 73.7% | 60.1% | 62.4% | 92.9% | 91.3% | 86.1% | 96.2% |  | 
O=C(Nc1cc(C(F)(F)F)cc(C(F)(F)F)c1)c1cc(Cl)ccc1O + OCc1c[nH]c2ccccc12 [Indole-3-carbinol] (first compound 0.016 µM, partner dose 0.8 µM) | 88.1% | 100% | 90.9% | 99.6% | 84.2% | 88.8% | 98.8% | 76.5% |  | 
O=C(Nc1cc(C(F)(F)F)cc(C(F)(F)F)c1)c1cc(Cl)ccc1O + Cc1cn(-c2cc(NC(=O)c3ccc(C)c(Nc4nccc(-c5cccnc5)n4)c3)cc(C(F)(F)F)c2)cn1 [nilotinib] (first compound 0.016 µM, partner dose 0.2 µM) | 95.3% | 103% | 90% | 81% | 111% | 90.5% | 99.2% | 85.1% |  | 
O=C(O)c1ccc2c(c1)nc(Nc1cccc(Cl)c1)c1ccncc12 + CCCS(=O)(=O)Nc1ccc(F)c(C(=O)c2c[nH]c3ncc(Cl)cc23)c1F [PLX4720] (first compound 0.4 µM, partner dose 0.08 µM) | 79.7% | 89.9% | 86.4% | 101% | 88.8% | 102% | 91.6% | 65.6% |  | 
O=C(O)c1ccc2c(c1)nc(Nc1cccc(Cl)c1)c1ccncc12 + Nc1nc(F)nc2c1ncn2[C@@H]1O[C@H](CO)[C@@H](O)[C@@H]1O [fludarabine] (first compound 0.4 µM, partner dose 0.2 µM) | 93.6% | 37.6% | 111% | 190% | 65% | 9.26% | 20.6% | 104% |  | 
O=C(O)[C@@H]1[O][Sb](=[O])([O][Sb]2(=[O])[O][C@H]([C@H](O)CO)[C@H](O)[C@H](C(=O)O)[O]2)[O][C@H]([C@H](O)CO)[C@@H]1O (some centres undefined) [stibogluconate] + Nc1nc(F)nc2c1ncn2[C@@H]1O[C@H](CO)[C@@H](O)[C@@H]1O [fludarabine] (first compound 2 µM, partner dose 0.2 µM) | 101% | 48.9% | 78.9% | 92.4% | 95.4% | 10.5% | 14.7% | 81.8% |  | 
O=C(Nc1ccccc1)c1cc([N+](=O)[O-])ccc1Cl + CCN(CC)CCCCNc1ncc2cc(-c3cc(OC)cc(OC)c3)c(NC(=O)NC(C)(C)C)nc2n1 [PD173074] (first compound 2 µM, partner dose 0.1 µM) | 96% | 104% | 68.6% | 98.8% | 72.9% |  | 96.7% | 91.6% | 104% | 139%
O=C(Nc1ccccc1)c1cc([N+](=O)[O-])ccc1Cl + O=C1NC(=O)/C(=C/c2ccc(-c3ccc(F)cc3O)o2)S1 [AS252424] (first compound 2 µM, partner dose 1 µM) | 105% | 90.8% | 137% | 88.8% | 95.6% |  | 107% | 72.2% | 111% | 103%
O=C(O)[C@@H]1[O][Sb](=[O])([O][Sb]2(=[O])[O][C@H]([C@H](O)CO)[C@H](O)[C@H](C(=O)O)[O]2)[O][C@H]([C@H](O)CO)[C@@H]1O (some centres undefined) [stibogluconate] + COCC[n+]1c2c(n(Cc3cnccn3)c1C)C(=O)c1ccccc1C2=O [YM155] (first compound 2 µM, partner dose 0.0004 µM) | 70.4% | 87.5% | 105% | 102% | 79.9% | 89.1% | 84.4% | 87.4% |  | 
